In a collection of fitness landscapes (doi:10.1126/science.1257360) one finds enrichment ratio data, which are given here for 195 variants.

Some of the results follow.

B1: PhoQ; a variant is named by its letters at X, in order, P23837 (parent)
chain: MKKLLRLFFPLSLRVRFLLATAAVVLVLSLAYGMVALIGYSVSFDKTTFRLLRGESNLFYTLAKWENNKLHVELPENIDKQSPTMTLIYDENGQLLWAQRDVPWLMKMIQPDWLKSNGFHEIEADVNDTSLLLSGDHSIQQQLQEVREDDDDAEMTHSVAVNVYPATSRMPKLTIVVVDTIPVELKSSYMVWSWFIYVLSANLLLVIPLLWVAAWWSLRPIEALAKEVRELEEHNRELLNPATTRELTSLVRNLNRLLKSERERYDKYRTTLTDLTHSLKTPLXXLQXXLRSLRSEKMSVSDAEPVMLEQISRISQQIGYYLHRASMRGGTLLSRELHPVAPLLDNLTSALNKVYQRKGVNISLDISPEISFVGEQNDFVEVMGNVLDNACKYCLEFVEISARQTDEHLYIVVEDDGPGIPLSKREVIFDRGQRVDTLRPGQGVGLAVAREITEQYEGKIVAGESMLGGARMEVIFGRQHSAPKDE

Variants of B1 are the subject of the test. The test can be described thus: enrichment ratio after two sorts for PhoP signalling (ratio (wild type AVST 3.29)); higher = more functional. The conditions noted are these: with PhoP (E. coli).
As for YYLE, the enrichment ratio was no more than 0.25. For the variant RNQI, the enrichment ratio is no more than 0.25. Turning to RIQI, the enrichment ratio was no more than 0.25.

As for YCYV, the enrichment ratio is no more than 0.25. On to VYPA, for which the enrichment ratio was no more than 0.25. The figure for QAYR is no more than 0.25. Turning to GMTG, the enrichment ratio is no more than 0.25.

On to ALKW, for which the enrichment ratio was no more than 0.25.

Consider EDHC, for which the enrichment ratio was no more than 0.25.

Turning to HKAP, the enrichment ratio is no more than 0.25. Consider NSQA, for which the enrichment ratio was no more than 0.25. Turning to NSPT, the enrichment ratio is no more than 0.25. For the variant HKIA, the enrichment ratio is no more than 0.25. GMGL: the enrichment ratio is no more than 0.25. For MDSH, the enrichment ratio is no more than 0.25. As for MDIM, the figure is 4.77; as for LDIK, no more than 0.25. Consider QPIM, for which the enrichment ratio was no more than 0.25.

For QNPF, the enrichment ratio was no more than 0.25.

As to RKTW, the enrichment ratio was no more than 0.25. The figure for MEYV is 5.49. Take FFLE: the enrichment ratio is no more than 0.25.

In the case of GWHL, the enrichment ratio was no more than 0.25. The figure for GWEG is no more than 0.25. For SWMC, the enrichment ratio is no more than 0.25.

As to TYDR, the enrichment ratio is no more than 0.25. SSRD: the enrichment ratio is no more than 0.25. With NLNK, the enrichment ratio is no more than 0.25. The figure for IHLF is no more than 0.25; for VCEL it is no more than 0.25. The figure for RSMY is no more than 0.25. On to GSAA, for which the enrichment ratio is no more than 0.25. Turning to MEGY, the enrichment ratio was 11.2. For FYCM, the enrichment ratio is no more than 0.25. Consider CSIM, for which the enrichment ratio is no more than 0.25. In the case of AIFR, the enrichment ratio was 2.81. On to HEGQ, for which the enrichment ratio was no more than 0.25.

Regarding RRYA, the enrichment ratio was no more than 0.25. MADH: the enrichment ratio was no more than 0.25. For the variant EPST, the enrichment ratio was no more than 0.25. On to PSML, for which the enrichment ratio was no more than 0.25.

With INEM, the enrichment ratio is no more than 0.25. For the variant AHNL, the enrichment ratio was 0.847. For the variant FHVF, the enrichment ratio is no more than 0.25.

Turning to ASHM, the enrichment ratio was no more than 0.25. As for STVM, the enrichment ratio is 16.3.

For YAVM, the enrichment ratio was no more than 0.25.

In the case of EPEF, the enrichment ratio is no more than 0.25. Turning to VVTS, the enrichment ratio is no more than 0.25.

MRWL: the enrichment ratio was no more than 0.25. Turning to FGWR, the enrichment ratio was no more than 0.25. The figure for HEKV is no more than 0.25. As to QWVI, the enrichment ratio was no more than 0.25. Turning to TEGI, the enrichment ratio was no more than 0.25.

Consider TDRE, for which the enrichment ratio was no more than 0.25. WRQP: the enrichment ratio is no more than 0.25. With GDDS, the enrichment ratio is no more than 0.25. As to AEFY, the enrichment ratio came out at 0.523. On to PDRE, for which the enrichment ratio was no more than 0.25. The figure for WTKL is no more than 0.25; for TECF it is 9.82. As for YHSC, the figure is no more than 0.25.

Consider DDGQ, for which the enrichment ratio is no more than 0.25. With HHGH, the enrichment ratio was no more than 0.25. Take WSHV: the enrichment ratio is no more than 0.25. As for GTTT, the enrichment ratio is no more than 0.25.

Take PMNP: the enrichment ratio was no more than 0.25. As for FFHF, the figure is no more than 0.25; as for EKTC, no more than 0.25; as for FPDW, no more than 0.25. On to DVWL, for which the enrichment ratio was no more than 0.25. As for FCCV, the figure is no more than 0.25; as for GPVT, no more than 0.25. As for PNVT, the enrichment ratio is no more than 0.25. In the case of PKNM, the enrichment ratio is no more than 0.25.

With WEKN, the enrichment ratio is no more than 0.25. On to NYYR, for which the enrichment ratio is no more than 0.25.

HIAR: the enrichment ratio was no more than 0.25. Take QVCF: the enrichment ratio is no more than 0.25. With DGLV, the enrichment ratio was no more than 0.25. DHCM: the enrichment ratio is no more than 0.25. Regarding FRIM, the enrichment ratio was no more than 0.25. As for SCIN, the figure is 0.637; as for KDYW, no more than 0.25; as for PDPG, no more than 0.25. As to ILGN, the enrichment ratio is no more than 0.25. The figure for GRWP is no more than 0.25.

As for TAFH, the enrichment ratio amounted to 2.76. For the variant TCHV, the enrichment ratio is 7.71.

Consider IWIR, for which the enrichment ratio is no more than 0.25. With DGCP, the enrichment ratio is no more than 0.25. In the case of GTNA, the enrichment ratio was no more than 0.25.

As to TFCH, the enrichment ratio was determined as 2.02. For the variant KPQW, the enrichment ratio is no more than 0.25. As for QFNC, the figure is no more than 0.25; as for NPCQ, no more than 0.25.

For the variant IFMG, the enrichment ratio was no more than 0.25. Turning to ALTT, the enrichment ratio is no more than 0.25. Turning to DYVM, the enrichment ratio was no more than 0.25. As to CPRL, the enrichment ratio was no more than 0.25. As for TELV, the figure is 25.1; as for ATRQ, no more than 0.25. GMLS: the enrichment ratio worked out at 0.567. In the case of GLSC, the enrichment ratio worked out at 0.624.

With SWQR, the enrichment ratio was no more than 0.25.

Consider SLGS, for which the enrichment ratio came to 0.404.

In the case of NTPM, the enrichment ratio was no more than 0.25.

For YTFQ, the enrichment ratio is no more than 0.25. In the case of ELSL, the enrichment ratio was no more than 0.25. For the variant VKRS, the enrichment ratio is no more than 0.25. Take AWQM: the enrichment ratio is no more than 0.25.

Consider WSWC, for which the enrichment ratio is no more than 0.25. As to TLIA, the enrichment ratio is no more than 0.25. The figure for VNRQ is no more than 0.25; for MNIQ it is no more than 0.25; for MTCY it is no more than 0.25. On to TIGY, for which the enrichment ratio amounted to 5.33. As for FKGC, the figure is no more than 0.25; as for LYSL, no more than 0.25.

For SWHS, the enrichment ratio is no more than 0.25. With IDNR, the enrichment ratio is no more than 0.25. As to SDMS, the enrichment ratio stood at 1.69. The figure for FGFM is no more than 0.25; for RLSY it is no more than 0.25.

Consider HELR, for which the enrichment ratio was no more than 0.25.

For YTFR, the enrichment ratio is no more than 0.25. With QIGQ, the enrichment ratio was no more than 0.25.

Consider PSEF, for which the enrichment ratio was no more than 0.25.

Consider KDCT, for which the enrichment ratio was no more than 0.25. Consider GHME, for which the enrichment ratio is no more than 0.25. As for FEAW, the enrichment ratio is no more than 0.25. Consider RSKF, for which the enrichment ratio is no more than 0.25.

As to GSDL, the enrichment ratio is no more than 0.25. Regarding TRDN, the enrichment ratio is no more than 0.25. For the variant DYCL, the enrichment ratio is no more than 0.25. The figure for IDMF is no more than 0.25; for FGVC it is no more than 0.25.

Take KFYE: the enrichment ratio is no more than 0.25. In the case of DYNW, the enrichment ratio was no more than 0.25. As to QFDS, the enrichment ratio was no more than 0.25.

With GIRW, the enrichment ratio is no more than 0.25. On to YAWW, for which the enrichment ratio is no more than 0.25.

In the case of PSHS, the enrichment ratio was no more than 0.25. As for DTGL, the enrichment ratio was no more than 0.25. For VIRH, the enrichment ratio is no more than 0.25. For HFSW, the enrichment ratio is no more than 0.25. As for PSPQ, the enrichment ratio was no more than 0.25. NMLK: the enrichment ratio was found to be 0.982. The figure for EFMN is no more than 0.25; for KVWR it is no more than 0.25. In the case of TFWF, the enrichment ratio was no more than 0.25. On to ETEY, for which the enrichment ratio is no more than 0.25. The figure for FTPY is no more than 0.25; for PLHM it is no more than 0.25; for RAKM it is no more than 0.25. Take NIPA: the enrichment ratio is no more than 0.25. The figure for EIFR is no more than 0.25. As for TQEK, the figure is no more than 0.25; as for TCDY, no more than 0.25; as for FPEH, no more than 0.25. The figure for IQNC is no more than 0.25. For the variant HKMH, the enrichment ratio is no more than 0.25. For the variant IEKV, the enrichment ratio was no more than 0.25. Regarding VGQW, the enrichment ratio is no more than 0.25. As for QGHA, the figure is no more than 0.25. Regarding VMHH, the enrichment ratio was no more than 0.25. Turning to VWNT, the enrichment ratio is no more than 0.25. As for QPPF, the figure is no more than 0.25; as for EQLL, no more than 0.25; as for MLTV, no more than 0.25.

With RLEP, the enrichment ratio was no more than 0.25. Turning to QSTY, the enrichment ratio was no more than 0.25. The figure for LGTN is no more than 0.25; for PQTV it is no more than 0.25; for DSDV it is no more than 0.25.

For the variant TKYR, the enrichment ratio is no more than 0.25. PECN: the enrichment ratio is no more than 0.25. NKMK: the enrichment ratio is no more than 0.25. For the variant MPYA, the enrichment ratio was no more than 0.25. On to CCSV, for which the enrichment ratio was no more than 0.25.

Turning to PSAM, the enrichment ratio is no more than 0.25.

On to IEGE, for which the enrichment ratio is no more than 0.25. GASR: the enrichment ratio was no more than 0.25. As for FFSL, the enrichment ratio was no more than 0.25. For GGYI, the enrichment ratio is no more than 0.25. In the case of TEIN, the enrichment ratio amounted to 5.99. As for AEVN, the enrichment ratio was determined as 10. Regarding ETNY, the enrichment ratio is no more than 0.25. Take WLCP: the enrichment ratio is no more than 0.25. Regarding DRHC, the enrichment ratio is no more than 0.25. Take HKPI: the enrichment ratio was no more than 0.25. The figure for NYFD is no more than 0.25; for SCHA it is no more than 0.25. As to RIKV, the enrichment ratio is no more than 0.25. For MSPF, the enrichment ratio was no more than 0.25.
